We go through 47 compounds from PubChem BioAssay AID1508624 (National Center for Advancing Translational Sciences (NCATS), 2021).

Molecules are shown by their SMILES. Screen size: about 48,000 compounds; about 120 (0.25%) were called active. About 4% were inconclusive and are not listed. Calls follow the shape of the dose curve; as a rule, active = well fitted activation curve with a large enough effect; inconclusive = small, poorly fitted or top-dose-only effect, or another doubt; inactive = no such curve, though single readings can be large or run the other way. This is one part of the list.

The assay can be described thus: Primary qHTS for Identification of Small Molecule Activators of Huntingtin-Antisense Promoter Activity. Also: nearly all actives have a fitted effect of over 55% in size. The conditions noted are these: HEK293 HTT-AS promoter firefly luciferase reporter (activity 0% = vehicle and -100% = no light), 24 h; series mostly up to 57.5 µM; activity change, positive = activation: at the top concentration. The method, boiled down:
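Quantitative HTS used concentration series of up to 57.5 uM final on HEK293 luciferase reporter cells, 24 h at 37 degrees C. Readout was Dual-Glo firefly luminescence.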
Background: In qHTS, concentration-response curves come from the screen itself.
Turning to `COc1ccccc1N1CCN(c2ccc(=O)n(CC(=O)NCc3ccc(F)cc3)n2)CC1`, the “activity change, positive = activation” value is inactive: -13.5%.
The result for `O=C(OCc1cc(=O)n2nc(-c3cccs3)sc2n1)c1ccccc1Cl` reads inactive: 20.1%; that for `COc1cccc(CSc2nc3n(n2)C(c2ccc(C(=O)O)cc2)C(C(=O)Nc2ccccc2)=C(C)N3)c1` (configuration not stated), inactive: 6.24%.
Next, `CCOc1ccccc1NC(=O)CSc1nc2c(oc3ccccc32)c(=O)n1-c1ccc(F)cc1`: inactive: -19.8%.
As to `Cc1c(C(=O)N2CCCCCC2)c(S(=O)(=O)NCc2ccccc2)c(C)n1C`, the “activity change, positive = activation” value is inactive: -5.45%.
The result for `COc1ccc(CN(CCN(C)C)c2ccccn2)cc1` reads inactive: -3.05%; that for `CCCNC(C)C(=O)Nc1ccccc1C` (configuration not stated), inactive: -3.26%.
In the case of `CCOc1ccc(CCNC(=O)c2c(C)oc3ncn(CC(C)C)c(=O)c23)cc1OCC`, the “activity change, positive = activation” value was inactive: 0.543%.
The result for `CC(=O)N1CCc2c(sc3c2c(=O)n(-c2ccccc2)c(=O)n3CC(=O)Nc2cc(C)cc(C)c2)C1` reads inactive: -34.7%; that for `CC(COc1ccccc1)N(CCCl)Cc1ccccc1` (configuration not stated), “inactive”.
Take `Nc1ncn([C@@H]2O[C@H](CO)[C@@H](O)[C@H]2O)c(=O)n1`: the “activity change, positive = activation” value was inactive: -40%.
As for `Cc1ccc(-n2nc(C(=O)N3CCN(c4ccccc4F)CC3)c(=O)n(C)c2=O)cc1`, the “activity change, positive = activation” value is inactive: -8.24%.
Next, `O=C(NCc1ccccc1F)C(=O)NCC(c1ccc2c(c1)OCO2)N1CCOCC1` (configuration not stated): inactive: -9.8%; `CCc1ccc(NC(=O)CSc2nc(C)c(C(=O)Nc3ccccc3)c(-c3ccc(OC)c(OC)c3)c2C#N)cc1`: inactive: -23.4%; `Cc1cc(Br)ccc1NC(=O)CSc1c2c(nc3ccccc13)CCC2`: inactive: -36.2%.
The result for `CCCCC12CN3CC(C)(CN(C1)C3c1c[nH]c3ccccc13)C2=O` (configuration not stated) reads inactive: 0.138%; that for `CCCCC(CC)CNC(=O)Cc1ccc(-n2c(=O)[nH]c3ccccc3c2=O)cc1` (configuration not stated), inactive: -29.7%; that for `Cc1cccc(CSc2nc3c([nH]c4ccccc43)c(=O)n2C)c1`, inactive: -7.5%.
Take `CC(=O)N1c2ccc(S(=O)(=O)Nc3ccc(C)c(Cl)c3)cc2CC1C` (configuration not stated): the “activity change, positive = activation” value is inactive: -39.1%.
Turning to `COc1ccc(N2CCN(S(=O)(=O)c3ccc(-c4coc(C)n4)cc3)CC2)cc1`, the “activity change, positive = activation” value is inactive: -30.9%.
The result for `CCOc1ccc(CC(=O)Nc2c(C(=O)c3ccccc3)oc3ccc(Cl)cc23)cc1OCC` reads inactive: -4.1%.
The result for `COc1cc2c(cc1OC)n(CC(=O)c1cc(C)ccc1C)c(=O)n1nc(CCn3nc(C)cc3C)nc21` reads inactive: -16.5%; that for `Cc1c(CCNC(=O)c2ccc(C(C)(C)C)cc2)sc2nc(-c3ccc(F)cc3)nn12`, inactive: -0.0089%.
The result for `CC1=C(C(=O)Nc2cccnc2)C(c2ccc(C)cc2)n2nc(SCc3ccccc3F)nc2N1` (configuration not stated) reads inactive: -6.3%.
As for `Cc1cc(Nc2ccc(F)cc2F)nc(-n2nc(C)cc2C)n1`, the “activity change, positive = activation” value is inactive: -19.9%.
Next, `CCc1cc2c(cc3c(=O)n(CCCC(=O)NCc4cccc(Br)c4)ncn32)s1`: inactive: -58.6%.
In the case of `Cc1ccc(NC(=O)C(CC(C)C)N2Cc3ccccc3C2=O)cc1F` (configuration not stated), the “activity change, positive = activation” value is inactive: -19.5%.
Next, `CNS(=O)(=O)c1cn(CC(=O)N2CCN(c3ccc(C(C)=O)cc3)CC2)cc1S(=O)(=O)NC`: inactive: -8.65%; `O=C(CSc1nc(=O)n(CCN2CCOCC2)c2c1CCC2)Nc1ccc(Cl)c(Cl)c1`: inactive: -33.8%; `O=C(Nc1ccc(F)c(Cl)c1)Nc1c[nH]c(=O)[nH]c1=O`: inactive: -1.97%.
With `CC(=O)Nc1ccccc1-c1nc2ccccc2n(CC(=O)Nc2cccc(C)c2C)c1=O`, the “activity change, positive = activation” value was inactive: -0.278%.
Next, `CC(CNC(=O)c1cnn(-c2ccc(F)cc2)c1-n1cccc1)c1ccccc1` (configuration not stated): inactive: -45.3%; `Cc1cc2c(cc1S(=O)(=O)Nc1cccc(Cl)c1C)n(C)c(=O)c(=O)n2C`: inactive: -27.6%; `CCOC(=O)c1cc(-c2ccccc2)n(CCC(=O)Nc2ccccc2CC)c1C`: inactive: -11.3%.
Turning to `Cc1cc(C)cc(N2C(=O)CSC23C(=O)N(Cc2c(F)cccc2Cl)c2ccccc23)c1` (configuration not stated), the “activity change, positive = activation” value was inactive: -37.4%.
The result for `Cc1cccc2nc(-c3ccccn3)c(Nc3ccc(F)cc3)n12` reads inactive: -44.6%; that for `COc1ccc(C2CC(=O)N(Cc3ccc(C)cc3)c3c2c(C)nn3-c2nc(C)cc(C)n2)c(OC)c1` (configuration not stated), inactive: -2.79%.
Next, `CCC(=O)N1c2ccccc2CC1C(=O)NCc1ccc(CC)cc1` (configuration not stated): inactive: -8.36%; `Cc1cc(C)cc(N(CC(=O)NCCc2ccc(Cl)cc2)S(=O)(=O)c2c(C)noc2C)c1`: inactive: -5.35%; `Cc1ccc2c(c1)c1c(c(=O)n(-c3ccccc3)c(=O)n1Cc1ccccc1C)n2C`: inactive: -14.2%.
Next, `CN1CCN(C(=O)c2cnn(-c3ccc(F)cc3F)c2C2CCN(C(=O)OC(C)(C)C)CC2)CC1`: inactive: -13%; `COc1ccc(NC(=O)Nc2nnc(N3CCCC3)s2)cc1`: inactive: 46%; `CC(=O)c1ccc(S(=O)(=O)NC(=O)NC2CCCCC2)cc1`: inactive: -1.13%.
As for `Cc1ccc2c(=O)cc(C(=O)N(Cc3ccc(C(C)(C)C)cc3)C3CCS(=O)(=O)C3)oc2c1` (configuration not stated), the “activity change, positive = activation” value is inactive: -13.8%.
Next, `Cc1ccc(-n2ncc(C(=O)NCc3ccc4c(c3)OCO4)c2C2CCN(C(=O)OC(C)(C)C)CC2)c(C)c1`: inactive: -2.03%.
Regarding `COC(=O)c1ccc(NC(=O)c2cc(S(=O)(=O)N3CCOCC3)cn2C)cc1`, the “activity change, positive = activation” value was inactive: -8.38%.
Next, `Cc1ccccc1OCC(=O)Nc1ccc(S(=O)(=O)N(Cc2ccccc2)c2ccccc2)cc1`: inactive: -3.03%.
